From publication PMC12136788
Some of the results follow.

B1: chr1:193013303:193013404:-|3pUTR|ENSG00000116750|unk|total|mutant (ssRNA)
RNA: GGGAGUUCUACAGUCCGACGAUCAAACCACUCCCGCUAUUUGAAGAGGAAUGCAGAUUUAUAUUGGGAGUUUUGAAACUACACCGUUUCUUACAAAAUCAUUGGAAGGUUUGGAGGAGCGGUUUCAAGCUUAAGUCUCCAGAGCAACAGAGGAUUGAGCAUCA
B2: chr4:99420532:99420793:-|CDS|ENSG00000196344|control|control|control (ssRNA)
RNA: GGGAGUUCUACAGUCCGACGAUCUGCAUCUAGGAUCAUUGGGAUUGACCUCAACAAAGACAAAUUUGAGAAGGCCAUGGCUGUAGGUGCCACUGAGUGUAUCAGUCCCAAGGACUCUACCAAACCCAUCAGUGAGGUGCUGUCCAACAGAGGAUUGAGCAUCA
B3: chr11:102396659:102396760:-|3pUTR|ENSG00000152558|msi1_unk|total|mutant (ssRNA)
RNA: GGGAGUUCUACAGUCCGACGAUCCUUUUUCUCUGUAUGUAAGCCGUAUAAUUUGUUACUUUCAAAUACCCGUACUUUGAAUGCCGGUUUUUUUGUUGUUGUUAUCUAUAAAAAUUGAGGGAAAUGGUUAUGCAAAAAAAUAUUCAACAGAGGAUUGAGCAUCA
B4: chr17:63423787:63423888:+|3pUTR|ENSG00000170921|msi1|FALSE|bound_elsewhere (ssRNA)
RNA: GGGAGUUCUACAGUCCGACGAUCCUAACUCAAGCCCCAGCCUCUUUCCACACUCCCUGAUACCUAAGGACUGCUUUCUCAGCUAGACCAGGGUGGGCAUCAGCGACGCCUUCUCAGCUAGACCAGGGUAGGCAUCAGCGUCCUCAACAGAGGAUUGAGCAUCA
B5: chr11:46383557:46383658:+|3pUTR|ENSG00000110492|msi1_unk|FALSE|overlapping (ssRNA)
RNA: GGGAGUUCUACAGUCCGACGAUCCCACGCCCUCCCUCUCCCAGGCCCGAGAUGUGACCCACCAGUGCCUUCUGUCUGCUCGUUAGCUUUAAUCAAUCAUGCCCUGCCUUGUCCCUCUCACUCCCCAGCCCCACCCCUAAGUGCCAACAGAGGAUUGAGCAUCA
B6: ENSG00000145990:stop:overlap|stop_codon|ENSG00000145990|stop_codon|NA|stop_codon (ssRNA)
RNA: GGGAGUUCUACAGUCCGACGAUCUGAGCCCCGCCUACCUGAUCAGCGAGGCCAUGCGCCGCAGCAGGAUGUCCCUCUACUGUUAGCACAGAUUGAGAACCUCGGGGACUUGAGCCUUCUGCAGGGGAUGUCCACAGAGAGGGACAACAGAGGAUUGAGCAUCA
B7: chr3:107805913:107806014:+|3pUTR|ENSG00000114439|msi1_unk|total|mutant (ssRNA)
RNA: GGGAGUUCUACAGUCCGACGAUCUACAUGGAGAUUUAAGUUUAAGAUGGUUUAUAUAACCGGUUAUACCUACAUUUAUAUUGCCGAAUAAAUAUUAAAAAGCCUGUUCCAGAGACUCCCAAGCAGCCUGGGCAGGCAGAUGUACAACAGAGGAUUGAGCAUCA
B8: chr17:67075675:67075776:-|3pUTR|ENSG00000198265|unk|FALSE|unique (ssRNA)
RNA: GGGAGUUCUACAGUCCGACGAUCAUUCCUUAUUUCCAUAGCCAGUCAAGGAUUCUAACGCUGCUUCCAUCUGAUACUCUUCUUAGAUUCUGCAUCAAAUGCUUAUUUUGACUUACAACAAGCUUACUCUUCCUCAGCAUUACACAACAGAGGAUUGAGCAUCA
B9: chr5:55424853:55425205:-|three_prime_utr|ENSG00000067113|control|control|control (ssRNA)
RNA: GGGAGUUCUACAGUCCGACGAUCCAAGCCUUUAAAGACUUCUGCUGCUGCUAUGCCUCUUGGAUGCACACUUUGUGUGUACAUAGUUACCUUUAACUCAGUGGUUAUCUAAUAGCUCUAAACUCAUUAAAAAAACUCCAAGCCCAACAGAGGAUUGAGCAUCA
B10: chr16:46798953:46799054:-|3pUTR|ENSG00000155330|unk|total|mutant (ssRNA)
RNA: GGGAGUUCUACAGUCCGACGAUCUCUAUAUUUUUUUCUUUGCCUUAUUGCACUGGUUGGGACUUUUUGCCUUGAUCCAGUUGCCGGGGGGAAACAUUCAGUCAUUAAGCAUUAAAUAACUUUGUUGUUGUUGUGGGCUUGAAACAACAGAGGAUUGAGCAUCA
B11: chr1:67426168:67426278:-|CDS|ENSG00000142864|unk|FALSE|unique (ssRNA)
RNA: GGGAGUUCUACAGUCCGACGAUCAUAAGACGAGUUGGAAGAAGACCUGAUCAACAACUUCAGGGUGAAGGGAAAAUAAUUGAUAGAAGACCAGAAAGGCGACCACCUCGUGAACGAAGAUUCGAAAAGCCACUUGAAGAAAAGCAACAGAGGAUUGAGCAUCA
B12: chr15:49134392:49134529:-|CDS|ENSG00000166200|unk|total|mutant (ssRNA)
RNA: GGGAGUUCUACAGUCCGACGAUCAUAUUUGCUUUCCCCGACUGAUGAUGGAGAAGAUGAUCUGAAAAAAGGUACACAGUUAUCCGAAAUAUAUGCUUUGGAAAUUCAAAUGUACACAGCACAGAAAAAUAACAAAAAACUUAACAACAGAGGAUUGAGCAUCA
B13: chr11:130877263:130877364:-|3pUTR|ENSG00000120451|msi1|total|mutant (ssRNA)
RNA: GGGAGUUCUACAGUCCGACGAUCCAGUCCUUUAACAACACCAGCAUGAAGGCAAAGGUGUUUUGUCAGACUGCAACAUCUAUCCGAAAGGCAAGGCAACUGGGAAUUGCUGGAGAAGGAUAAAUCAGGAGGAAUUGCUGGCCGCAACAGAGGAUUGAGCAUCA
B14: chr1:150960872:150960973:+|CDS|ENSG00000143379|unk|total|mutant (ssRNA)
RNA: GGGAGUUCUACAGUCCGACGAUCGGACUCCCACCCCCCAGAUCUUGGACCCCCACAUAUUCCUGUUCCUCCCUCAAUCCCUGCCGGUGGCUGCAAUCCACCUUCCUCCGAAGAGACACCCAAGAACAAGGUGGCCUCAUGGUUCAACAGAGGAUUGAGCAUCA

Biological target: MSI1 full-length (mouse, UniProt Q61474 1-362)
Assay: nsRBNS (natural sequence RNA bind-n-seq); RBNS binding buffer (assumed for nsRBNS): 25 mM Tris pH 7.5, 150 mM KCl, 3 mM MgCl2, 0.01% Triton X-100, 500 ug/ml BSA, 20 U/ml SUPERase-In, 4 C; UNK is unkempt and MSI1 is Musashi-1; names of the RNAs are library labels; protein concentration not given here; high values mean tight binding

Chain of UniProt Q61474 (Q61474 whole entry): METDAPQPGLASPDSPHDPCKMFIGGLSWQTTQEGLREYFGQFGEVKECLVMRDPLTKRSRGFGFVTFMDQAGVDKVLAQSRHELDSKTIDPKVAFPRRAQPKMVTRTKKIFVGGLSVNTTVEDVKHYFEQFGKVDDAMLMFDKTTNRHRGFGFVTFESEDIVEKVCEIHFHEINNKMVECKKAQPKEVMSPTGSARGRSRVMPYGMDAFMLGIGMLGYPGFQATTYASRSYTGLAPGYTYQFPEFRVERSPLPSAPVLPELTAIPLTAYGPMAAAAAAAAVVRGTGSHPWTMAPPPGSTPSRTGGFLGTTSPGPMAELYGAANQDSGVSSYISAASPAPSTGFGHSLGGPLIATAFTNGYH

Going from B1 to B2, the binding signal falls from 0.475 enrichment R to 0.349 enrichment R.

First: B3
Second: B4
The binding signal of the first is higher: 1.67 enrichment R for the first, 0.822 enrichment R for the second.

Compared with B5, B6 is lower in binding signal: 1.31 enrichment R for the first, 0.305 enrichment R for the second.

First: B7
Second: B8
The binding signal of the first is lower: 0.451 enrichment R for the first, 3.7 enrichment R for the second.

First: B9
Second: B10
The binding signal of the first is higher: 0.854 enrichment R for the first, 0.306 enrichment R for the second.

First: B11
Second: B12
The binding signal of the first is higher: 0.797 enrichment R for the first, 0.408 enrichment R for the second.

Compared with B13, B14 is higher in binding signal: 0.397 enrichment R for the first, 0.496 enrichment R for the second.
